Experimental data taken from patent US5783557A, “THF-γ2 analogs and pharmaceutical compositions comprising them” (Yeda Research and Development Company Ltd at Weizmann …, priority 1993, dated 1998).
Not every detail of the peptide structures is certain; ends, links or a residue may be inferred. No end group written: not given here.

Experiments:
[1] = tested on: human umbilical cord blood lymphocytes (UCBL); conditions: cited from earlier work
[2] = tested on: patients with reduced circulating T cells; conditions: 4 ng/kg/day i.m., 18 injections in 3 weeks; cited from earlier work
[3] = tested on: RPC-5 murine plasmacytoma; conditions: RPC-5 immunized mice treated with THF-γ2; cited from earlier work
[4] = tested on: preoptic area (POA) multi-unit activity (MUA); conditions: conscious rats, intracerebroventricular, 0.2 ng/50 μl; cited from earlier work
[5] = tested on: spleen T cell function of BALB/c mice cured from MOPC-315 tumors; conditions: BALB/c mice cured from MOPC-315 by Melphalan; cited from earlier work
[6] = tested on: neonatally thymectomized (NTx) mice; conditions: cited from earlier work
[7] = tested on: C3B6F1 spleen cell cultures; conditions: cited from earlier work
mouse spleen cells = assay: ConA-induced IL-2 production; format: cell-based; design: key: +++: strong enhancement, as THF-γ2; ++ and +: medium and weak enhancement, lower than THF-γ2; ++ and +: medium and weak enhancement, lower than THF-γ2; --no activity; conditions: graded against THF-γ2; Example 1, section 1.1
Method: 1.1. ConA-Induced IL-2 Production
In this bioassay, the effect of THF-γ2 and its analogs in enhancing the secretion of ConA-induced IL-2 from murine spleen cells is determined.
1.1.1. Preparation of cells and preincubation with THF-γ2. Pooled spleen cells (10^7 cell/ml) from five female C3B6F1 (C3HeB/FeJ×C57BL/6J) mice (obtained from Jackson Labs, U.S.A.) aged 6-8 weeks are seeded in 24-well plates (Costar, Cambridge, Mass, U.S.A.). The cells are prepared in medium RPMI-1640 supplemented with penicillin (100 u/ml), streptomycin (100 μg/ml), 2 mM glutamine, 50 μM 2-mercaptoethanol (2-ME) and 20 mM HEPES. THF-γ2 in various concentrations in phosphate buffered saline (PBS), is added in 20 μl aliquots, while control cultures receive 20 μl PBS. The cell cultures are incubated for 20 h in a humidified incubator of 5% CO2 /95% air and 37° C.
1.1.2. Induction of IL-2. ConA (Concanavalin A, ConA, 3×crystalline, Bio-Makor, Ness-Ziona, Israel) is added to the wells in 1 ml fresh medium (as in 1.1.1 above) at suboptimal concentration (1-2.5 μ/ml). After 3 h the plates are centrifuged at 1200 rpm (Sorvall GLC-3 centrifuge), the supernatant is removed and replaced by 1 ml of fresh medium (as in 1.1.1 above) and the cultures are further incubated for 20 h. The plates are then centrifuged, the supernatants are collected and kept at -20° C.
1.1.3. Assay on CTL-D, an IL-2 dependent T cell line. Supernatants from 1.1.2 above (50 μl) are added at serial two fold dilutions (1:2-1:64), in triplicate, to U-bottomed microwells (Greiner, Germany) containing 1×10^4 CTL-D cells in 50 μl RPMI-1640 (as in 1.1.1 above) supplemented with 1 mM sodium pyruvate, 1 mM non-essential amino acids and 10% FCS (Beth-Haemek, Israel). After incubation of 48 h at 37° C./5% CO2, the proliferation is assessed by the MTT colorimetric assay (T. Mosmann, J. Immunol. Methods 65: 55-63, 1983). Results are expressed in units/ml calculated using a standard murine IL-2 preparation (according to S. Gillis et al., J. Immunol. 120: 2027, 1978).

[8] = tested on: myeloid progenitor cells in murine bone marrow; conditions: cited from earlier work
normal human BM-GM-CFCs = conditions: human BM-GM-CFC, GM-CSF dependent, 25 ng/ml; cited from earlier work
[9] = tested on: immunodeficient aging mice; conditions: single injection 16 ng/mouse; cited from earlier work
[10] = tested on: GM-CFC from mouse bone marrow; assay: Effect on GM-CFC from mouse bone marrow; format: cell-based; design: key: +++: strong enhancement, as THF-γ2; ++ and +: medium and weak enhancement, lower than THF-γ2; ++ and +: medium and weak enhancement, lower than THF-γ2; --no activity; conditions: graded against THF-γ2; Example 1, section 1.2
Method: 1.2. Effect of THF-γ2 on GM-CFC From Mouse Bone Marrow. In this second bioassay, the effect of THF-γ2 and its analogs in the enhancement of the number of colonies of GM-CFC in the presence of growth factors is determined. 1.2.1. […] Tibia and femur were removed from BALB/c female mice (6-8 weeks old). The tip of the bone was cut and DMEM with 2.5% FCS was flushed into the bone using a 1 ml syringe with a 26 G needle. This procedure was repeated twice, the cells were then washed in medium and counted in the presence of trypan blue. 1.2.2 Preincubation with THF-γ2. Bone marrow cells suspension was prepared in DMEM with 2.5% FCS at a concentration of 15×10^6 /3.0 ml. THFγ2 diluted in DMEM was added in 20 μl aliquots, control cells received 20 μl DMEM. Cell suspensions in conical tissue culture tubes were incubated at 37° C./8% CO2 for 1 h. Cells were then collected, washed and counted in trypan blue. Cell suspensions were adjusted at 1×10^6 /ml. 1.2.3. GM-CFC assay. Bone marrow cells (4×10^5) are suspended in methylcellulose (0.8%), FCS (20%) and conditioned medium of 14FIL3 CB6 cell line (5%) in a total volume of 4 ml of DMEM. After vigorous mixing, the suspension is seeded into 30 mm diameter plates with the aid of a 3.0 ml syringe (21G needle, in triplicate). The small plates are placed in a large plate (20 cm) alongside one open, small plate containing water, in order to maintain high humidity, and incubated at 37° C. in an 8% CO2 incubator for 7 days. Colonies are counted using an inverted microscope at low magnification.

MOPC-315 plasmacytoma = conditions: MOPC-315 tumor bearing mice; versus 5-FU alone; cited from earlier work

LEDGPKFL [THF-γ2, Leu-Glu-Asp-Gly-Pro-Lys-Phe-Leu]
optimum concentration for increase of PHA-induced IL-2 secretion ([1]; UCBL cultures treated prior to suboptimal PHA stimulation): 300 to 600 ng/mL
percentage of cells expressing the CD4 or the CD8 differentiation antigens ([1]; preincubation of UCBL): increased the percentage of cells expressing the CD4 or the CD8 differentiation antigens
patients in whom T cell populations were markedly enhanced [2]: 70%
patients whose negative delayed type hypersensitivity reaction tests became positive [2]: four of the five
specific cytotoxic response in vitro of spleen cells [3]: increased the specific cytotoxic response
POA MUA [4]: significantly reduced
immunodeficiency of cured mice (IL-2 secretion, MLR, antibody response, T cell subsets) [5]: repaired their immunodeficiency
restoration of the immune functions (ex-vivo PHA, ConA, MLR and IL-2 activity) ([6]; biweekly course of injections): partial to complete restoration
optimal daily dose ([6]; dose escalation 4, 40 and 400 ng/Kg): 4 ng/kg
augmenting IL-2 activity relative to control untreated cultures ([7]; C3B6F1 spleen cell cultures treated prior to ConA, at optimal concentration): 100-150%
optimal concentration for augmenting IL-2 activity ([7]; C3B6F1 spleen cell cultures): 100 to 300 ng/mL
IL-2: Enhancement of ConA induced IL2 production in mouse spleen cells (mouse spleen cells): +++
IL-6 activity ([8]; 24 h incubation with BM cells): did not induce IL-6 activity
optimal dose causing enhancement of myeloid colonies ([8]; murine BM cells): 25 to 100 ng/mL
increase in the number of myeloid colonies ([8]; preincubation of normal BM cells 1 h, suboptimal concentrations of CSF): 2-5 fold
maximal enhancement of the number of colonies relative to control cultures (normal human BM-GM-CFCs): 156%
frequency of ConA-responsive cells in thymus and spleen and of cytokine-producing splenic T cells [9]: up to the levels observed in young mice
GM-CFC: Enhancement of the number of GMCFC from mouse bone marrow [10]: +++
survival time (MOPC-315 plasmacytoma): prolonged the survival time
